Assay results published in publication PMC4336329 (PLoS ONE, 2015).
Screen size: about 310,000 compounds; about 2,200 (0.71%) showed an effect of 50% or more. Effects have a minus sign here. Some of the results follow.

The compounds below were run against human ether-à-go-go-related gene (hERG) potassium channel (human, UniProt Q12809) (assay: primary screen, population patch clamp on CHO cells stably expressing hERG).
Chain of human ether-à-go-go-related gene (hERG) potassium channel (Q12809 whole entry, looked up): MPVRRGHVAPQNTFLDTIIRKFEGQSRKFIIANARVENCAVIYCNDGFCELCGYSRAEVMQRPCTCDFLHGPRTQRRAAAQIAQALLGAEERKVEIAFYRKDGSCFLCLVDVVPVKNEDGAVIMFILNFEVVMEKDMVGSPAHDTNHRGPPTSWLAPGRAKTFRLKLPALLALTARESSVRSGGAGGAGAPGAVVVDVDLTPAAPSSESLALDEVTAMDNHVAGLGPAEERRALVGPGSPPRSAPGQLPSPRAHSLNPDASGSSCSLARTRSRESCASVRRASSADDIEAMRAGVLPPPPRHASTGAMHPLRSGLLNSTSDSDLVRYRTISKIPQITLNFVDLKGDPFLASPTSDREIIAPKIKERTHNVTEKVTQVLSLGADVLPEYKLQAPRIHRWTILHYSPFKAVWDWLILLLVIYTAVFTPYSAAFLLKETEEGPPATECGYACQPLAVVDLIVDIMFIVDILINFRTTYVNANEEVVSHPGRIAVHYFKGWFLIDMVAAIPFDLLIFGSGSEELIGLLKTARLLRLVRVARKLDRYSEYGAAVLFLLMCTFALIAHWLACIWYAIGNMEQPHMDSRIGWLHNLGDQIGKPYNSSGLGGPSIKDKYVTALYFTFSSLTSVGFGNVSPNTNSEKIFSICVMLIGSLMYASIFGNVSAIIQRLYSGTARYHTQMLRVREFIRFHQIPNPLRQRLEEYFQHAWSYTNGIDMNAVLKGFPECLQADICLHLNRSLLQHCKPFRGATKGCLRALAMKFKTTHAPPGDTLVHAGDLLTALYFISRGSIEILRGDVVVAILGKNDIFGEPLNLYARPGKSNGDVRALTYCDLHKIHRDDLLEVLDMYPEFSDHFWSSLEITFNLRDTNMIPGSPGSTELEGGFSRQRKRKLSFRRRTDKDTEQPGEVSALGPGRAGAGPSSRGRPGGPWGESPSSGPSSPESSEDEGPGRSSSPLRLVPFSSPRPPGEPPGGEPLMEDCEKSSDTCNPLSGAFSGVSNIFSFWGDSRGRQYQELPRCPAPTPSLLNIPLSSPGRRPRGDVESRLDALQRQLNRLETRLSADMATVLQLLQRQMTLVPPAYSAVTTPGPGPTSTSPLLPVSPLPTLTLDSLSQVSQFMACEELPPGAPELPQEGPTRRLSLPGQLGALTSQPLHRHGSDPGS

SMILES	hERG current change (%, negative = inhibition) at 1uM [%]
C=CCN1C(=O)c2ccc(C(=O)N(C)CC(=O)Nc3ccccc3Cl)cc2C1=O	4.92
CCCN(CC(=O)Nc1ccc(Cl)cc1Cl)Cc1cc(=O)n2ccsc2n1	-6.86
CC1CCCCC1NC(=O)C1CCN(S(=O)(=O)N2CCC3(CC2)OCCO3)CC1 (stereo not drawn)	8.62
COc1ccccc1NC(=S)NCCSc1ccc(C)cc1	-8.23
Cl.O=C(OCCN1CCOCC1)C(c1ccccc1)c1ccccc1	12.1
O=C(Nc1ccc(N2CCN(Cc3ccccc3)CC2)cc1)c1ccco1	7.73
COc1ccc(-c2cc(C(=O)Nc3cc(OC)c(OC)c(OC)c3)no2)cc1	21.4
CCn1cc(CN2N=C(C)CC2c2ccccc2)c(C)n1 (stereo not drawn)	13.2
CCOC(=O)N1CCN(c2c(F)cc3[nH]c(=S)[nH]c3c2Br)CC1	-7
COc1ccc(CCC(=O)Nc2ccc(C)c([N+](=O)[O-])c2)cc1	14.5
COc1ccc(NS(=O)(=O)c2c(C)[nH]c(=O)[nH]c2=O)c(OC)c1	24.1
COc1ccc([C@H]2/C=C\CN(Cc3ccc(N(C)C)cc3)[C@@H](C)C(=O)N2Cc2ccc(F)cc2)cc1	-3.39
O=C(N/N=C/c1cc2cc3c(cc2nc1Cl)OCCO3)c1ccccc1O	8.11
O=C(Cc1cccs1)Nc1ccc(S(=O)(=O)N2CCCCC2)cc1	14.8
COc1ccc(C(=O)CC(CC(=O)c2ccc(OC)cc2)C(=O)O)cc1	6.21
CCOC(=O)c1[nH]c(C)c(C(=O)OCC(=O)NCc2ccc(OC)c(OC)c2)c1C	-1.42
O=C(Cn1nc(C(=O)O)c2ccccc2c1=O)Nc1cc(C(F)(F)F)ccc1-n1cncn1	8.16
Cc1c(N(C(=O)CNC(=O)c2ccccc2)C2(C(=O)NC3CCCC3)CCCCC2)c(=O)n(-c2ccccc2)n1C	9.5
CCc1nc2c(c(SC)nn2-c2ccccc2)c(N)c1C(=O)OC	4.25
O=C(Cc1ccccc1)Nc1ccc(NC(=S)NC(=O)c2ccccc2)cc1	10.3
Nc1nncn1C(=O)c1ccc(Cl)cc1Cl	4.79
Br.O=C(CN1CCSC1=NCc1ccccc1)c1ccc(Cl)cc1	-5.13
CSCc1ccc(C(=O)NCc2ccc(C)cc2)cc1	3.91
Cn1c(CCN2CCN(c3ccccn3)CC2)nc2cc(NC(=O)COc3ccccc3)ccc21	-67
